Measurements reported in PubChem BioAssay AID588855 (National Center for Advancing Translational Sciences (NCATS), 2011).
The whole screen tested about 410,000 compounds, of which about 5,000 (1.2%) were called active. Inconclusive means that the source gave no clear call. Such entries were picked first, then a sample of the others. Calls follow the shape of the dose curve; as a rule, active = well fitted inhibition curve with a large enough effect; inconclusive = small, poorly fitted or top-dose-only effect; inactive = no such curve, though single readings can be large or run the other way. Where the call is inconclusive, the potency comes from a doubtful curve fit.

test: qHTS for Inhibitors of TGF-b; conditions: HepG2 CAGA-GFP TGF-b/SMAD3 reporter, GFP fluorescence, 18 h, TGF-beta stimulated, 500 pg/mL final; series mostly up to 46.1 µM; also: nearly all actives have a fitted effect of over 65% in size
How it was run: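 HEPG2 CAGA-GFP, 1000 cells/well; 2 h settle, 37 C; cpd via pin tool; TGF-b 500 pg/mL final; 18 h, 37 C; GFP imaging ex488/em500-530; %Activity normalised to -TGF-b and +DMSO controls; CRC fit, curve class.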
Potency is read from the fitted curve at half-maximal effect; tags tell the direction and shape of the fitted curve.

SMILES	Potency
CCC(CC)c1nnc(NC(=O)c2cc(-c3ccccc3)nc3ccccc23)s1	inactive
Nc1nc2n(n1)C(c1ccc(Cl)cc1)CC(c1ccc(F)cc1)N2 (configuration not stated)	inconclusive: 20 µM [inhibitor, single point]
O=C(NCCc1c[nH]c2ccccc12)c1cc([N+](=O)[O-])cc([N+](=O)[O-])c1	inactive
CCOC(=O)C1=CCN(S(=O)(=O)c2ccc(C)cc2)C1c1cccc(F)c1 (configuration not stated)	inconclusive: 17.8 µM [inhibitor, partial curve, poor fit]
Oc1ccc(C2=NNC(c3ccc(O)cc3)=NN2)cc1	inactive
CC1CCCCC1NC(=O)NC(=O)COC(=O)c1cncc(Br)c1 (configuration not stated)	inactive
CC(C)C(NS(=O)(=O)c1cccs1)C(=O)NCCCN1CCCCCC1 (configuration not stated)	inactive
Cc1ccc(NC(=S)Nc2ccc(OC(F)F)c(Cl)c2)cc1Cl	active: 17.8 µM
COc1ccc(C(=O)CSc2nnc(-c3cc4ccccc4cc3O)n2Cc2ccco2)cc1	inconclusive: 35.5 µM [inhibitor, single point]
CCOc1cc(/C=N/O)ccc1OCc1ccc([N+](=O)[O-])cc1	inactive
Cc1ccc(-c2cc(-c3ccccc3O)nc(N/N=C/c3cccnc3)n2)cc1	inconclusive: 3.55 µM [inhibitor, single point]
CC(=O)NCCc1nc2cc(NS(=O)(=O)c3ccccc3)ccc2n1C	inconclusive: 35.5 µM [inhibitor, single point]
Nc1c(C(=O)NCc2ccc(Cl)cc2)sc2nc(-c3ccc(F)cc3)ccc12	inconclusive: 1.58 µM [inhibitor, full curve, poor fit]
Cc1cc(C)n(-c2nc3ccccc3s2)n1	inactive
CC(NC(=O)CSc1nc2ccccc2c(=O)[nH]1)c1ccccc1 (configuration not stated)	inactive
Cc1ccc(C)c(CN2CCC(CNC(=O)CCc3nnc4ccc(N5CCC(C)CC5)nn34)CC2)c1	inconclusive: 15.8 µM [inhibitor, partial curve, poor fit]
O=C(COc1ccc(Oc2ccccc2)cc1)NCc1cn2ccccc2n1	inconclusive: 35.5 µM [inhibitor, single point]
COc1cc(O)c(C(CC(=O)N2CCN(c3ccccc3)CC2)c2ccc(N(C)C)cc2)c(OC)c1 (configuration not stated)	inconclusive: 35.5 µM [inhibitor, single point]
COc1ccc2c(CNCCc3cccs3)c(C(=O)O)n(Cc3cccc(F)c3)c2c1	inconclusive: 35.5 µM [inhibitor, single point]
O=C(COc1ccc([N+](=O)[O-])cc1)Nc1ccc(S(=O)(=O)N2CCOCC2)cc1	inconclusive: 15.8 µM [inhibitor, single point]
CC(=O)OCON[N+]([O-])=NC(C)C	inconclusive: 35.5 µM [inhibitor, single point]
Cc1ccc(CNC(=O)CN2CCN(Cc3ccc(F)cc3Cl)C2=O)cc1	inconclusive: 35.5 µM [inhibitor, single point]
COc1ccccc1Cc1c(-c2ccccc2)nc2ccc(Cl)cn12	inconclusive: 15.8 µM [inhibitor, single point]

SMILES	Potency
CNCC/C=C1/c2ccccc2CSc2ccccc21	inconclusive: 35.5 µM [inhibitor, single point]
COc1ccc(/C(C)=N/Nc2ncc(Cl)cc2Cl)c(O)c1	inactive
O=C1CSC(c2ccc3c(c2)OCO3)N1c1ccc(Oc2ccccc2)cc1 (configuration not stated)	inconclusive: 35.5 µM [inhibitor, single point]
COc1cc(NCC2COc3c(ccc(OC)c3OC)C2=O)c([N+](=O)[O-])cc1OC (configuration not stated)	inconclusive: 20 µM [inhibitor, partial curve, poor fit]
Cc1ccccc1CN1[C@@H](CC2CCCCC2)COCCS1(=O)=O	active: 11.2 µM
CCCCn1nnc(NC(=O)COc2cc(C)ccc2C(C)C)n1	inconclusive: 2 µM [inhibitor, partial curve, poor fit]
CSc1nnc2c3c4c(sc3nc(-n3nc(C)cc3C)n12)COC(C)(C)C4	inactive
Cc1nc(C(F)(F)F)ccc1C(=O)N1CCC1(C)C(=O)NS(=O)(=O)c1ccccc1Cl (configuration not stated)	inconclusive: 0.708 µM [inhibitor, full curve, poor fit]
COc1ccc(C=O)cc1COc1ccc(Cl)cc1[N+](=O)[O-]	inactive
Cc1cc(C)nc(-n2nc(C)c(Sc3ccc(F)cc3)c2N)n1	inconclusive: 20 µM [inhibitor, partial curve, poor fit]
CCOC(=O)C1CCCN(C(=O)Cn2sc3nc(C)cc(C)c3c2=O)C1 (configuration not stated)	inconclusive: 35.5 µM [inhibitor, single point]
CCN(c1ccccc1)c1nnc(NC(=O)Nc2ccc(Br)c(C)c2)s1	inactive
O=C(CSc1nccn1Cc1ccco1)Nc1cc(C(F)(F)F)ccc1Cl	inconclusive: 10 µM [inhibitor, partial curve, poor fit]
COCCCNC(=O)CCCn1c(=O)c2ccccc2n(CC(=O)Nc2c(C)cccc2C)c1=O	inconclusive: 6.31 µM [inhibitor, partial curve, poor fit]
CNc1nc(NCCOc2ccccc2)c2sccc2n1	inconclusive: 20 µM [inhibitor, single point]
O=C(N/N=C/c1ccccn1)c1[nH]c2ccc([N+](=O)[O-])cc2c1-c1ccccc1	inconclusive: 10 µM [inhibitor, partial curve, poor fit]
Cc1ccc(N2CCN(C(=O)c3cnn(-c4ccc(C)c(C)c4)c3C3CCNCC3)CC2)c(C)c1	inconclusive: 35.5 µM [inhibitor, single point]
O=C1c2ccccc2C(=O)N1CC1CCCO1 (configuration not stated)	inactive
COc1ccc(C2/C=C\CN(C(=O)CC(C)(C)C)C(C)C(=O)N2Cc2ccc(F)cc2)cc1 (configuration not stated)	inactive
COc1ccc(CNC(=O)CCCn2nc(C)c3c(C)n(-c4ccc(C)cc4)nc3c2=O)cc1OC	inconclusive: 0.398 µM [inhibitor, full curve]
COc1ccccc1NC(=O)NNC(=O)CCc1ccccc1	inactive
COC(=O)N/N=C/c1cc(Cl)cc(Cl)c1OCc1ccccc1	inconclusive: 20 µM [inhibitor, single point]
CC(C)(C)NS(=O)(=O)c1ccc(CCC(=O)Nc2cc(Cl)ccc2Oc2ccccc2)cc1	inconclusive: 11.2 µM [inhibitor, partial curve]

SMILES	Potency
Cc1cc(Br)ccc1S(=O)(=O)NCc1ccccc1	inconclusive: 35.5 µM [inhibitor, single point]
COc1ccc(NC(=O)CN(C)C(=O)c2cn(-c3ccccc3)nc2-c2cccs2)cc1	inactive
CCc1ccc(NC(=O)C(C)OC(=O)c2ccc(NS(=O)(=O)c3ccc(C)c([N+](=O)[O-])c3)cc2)cc1 (configuration not stated)	inconclusive: 15.8 µM [inhibitor, single point]
COc1ccc(OC)c(NC(=O)CN2CCCN(Cc3ccccc3Cl)S2(=O)=O)c1	inconclusive: 1.41 µM [inhibitor, full curve, poor fit]
Cc1cnc(NC(=O)c2ccccn2)s1	inconclusive: 28.2 µM [inhibitor, single point]
COc1cc(C(=O)N2CCN(C/C=C/c3ccccc3)CC2)cc(OC)c1C	inconclusive: 15.8 µM [inhibitor, single point]
COc1cccc2cc(C(=O)Nc3ccccc3C(=O)N3CCOCC3)oc12	inactive
C=C1c2cccc(OC)c2O[C@H](C(=O)OCC)[C@@H]1CCCCCC	inconclusive: 35.5 µM [inhibitor, partial curve, poor fit]
Cc1ccc(Cl)c(OCC(=O)NCc2ccco2)c1	inconclusive: 3.55 µM [inhibitor, single point]
CNC[C@H]1Oc2ccc(NC(=O)Cc3cn(C)c4ccccc34)cc2CC(=O)N([C@@H](C)CO)C[C@H]1C	inconclusive: 20 µM [inhibitor, single point]
CCCOc1ccc2c(c1)C(=NN=C(N)N)c1cc(OCCC)ccc1-2	inconclusive: 28.2 µM [inhibitor, single point]
Cc1ccc2nc(Cl)c3cc(C(=O)NCCCN(C)Cc4ccccc4)sc3c2c1	inconclusive: 35.5 µM [inhibitor, single point]
O=C(CN1C(=O)c2ccccc2C1=O)c1ccccc1	inconclusive: 3.98 µM [inhibitor, full curve, poor fit]
CCCN(CC(=O)Nc1ccccc1OC)C(=O)C1=COCCO1	inactive
Cc1cc2nc(-c3cccc(Br)c3)c(Cc3ccccc3)n2c(C)c1Br	inconclusive: 25.1 µM [inhibitor, single point]
Cc1nc2c(OCc3ccc(C(F)(F)F)cc3)cccn2c1N(C)CC1CC1	active: 11.2 µM
N#CC(C#N)=C1C=C2C=C(N3CCOCC3)CCC2CC1 (configuration not stated)	inconclusive: 2 µM [inhibitor, full curve, poor fit]
COc1ccccc1CN(C)CC(=O)Nc1ccc(Cl)cc1C(F)(F)F	inconclusive: 35.5 µM [inhibitor, single point]
O=C(c1cc2n(n1)C(C(F)(F)F)CC(c1ccco1)N2)N1CCc2ccccc2C1 (configuration not stated)	inconclusive: 35.5 µM [inhibitor, single point]
CCN(CC)S(=O)(=O)c1cc(C(=O)Nc2ccncc2)ccc1Cl	inconclusive: 7.08 µM [inhibitor, partial curve, poor fit]
CCOC(=O)c1c(C)[nH]c(C(=O)COC(=O)C(C)N2C(=O)C3CCCCC3C2=O)c1C (configuration not stated)	inactive
